# Screen size: about 410,000 compounds; about 260 (0.063%) were called active. This list was built around the results that the source calls inconclusive (neither active nor inactive); the mix of calls is not that of the screen. Calls follow the shape of the dose curve; as a rule, active = well fitted activation curve with a large enough effect; inconclusive = small, poorly fitted or top-dose-only effect; inactive = no such curve, though single readings can be large or run the other way. No potency is given beside an inconclusive call; the fits are too rough.
# Experiment: qHTS for compounds that reverse cellular toxicity of Amyloid beta (A-beta) peptide in yeast: Primary Screen; also: nearly all actives have a fitted effect of over 55% in size
# Details: yeast expressing A-beta42, growth rescue, OD600, 48 h; growth rescue: at 46.1 µM (top of the series), 0% DMSO, 100% iron-clioquinol control
# Summary of the method: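 Yeast A-beta toxicity model in growth medium with pinned compounds, 48 h at 30 C; growth read as absorbance at 600 nm. Normalized to FeCl3/clioquinol equimolar mix (positive) and DMSO (negative).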
# Potency is read from the fitted curve at half-maximal effect; tags tell the direction and shape of the fitted curve.
Compound,growth rescue,Potency
CC1=C(C(=O)Nc2cc(-c3cccc(F)c3)[nH]n2)C2(CCCCC2)OC1=O,inconclusive: -56.9% [activator],
Cc1cccc(C)c1NC(=S)N1CCC(c2ccccc2)C1 (stereo not given),,"inconclusive [activator, single point]"
O=C1c2ccccc2S(=O)(=O)N1Cc1c(F)cccc1Cl,inconclusive: 27.3% [activator],
Cc1ccccc1NC(=O)CNc1ccc(Cl)c(C(F)(F)F)c1,,"inconclusive [activator, partial curve, poor fit]"
CCOC(=O)C(=O)Nc1nc(-c2ccccc2)c(-c2ccccc2)o1,,"inconclusive [activator, partial curve, poor fit]"
COc1ccc(NC(C)c2cc(Cl)ccc2O)cc1 (stereo not given),,inactive
CCOC(=O)c1c(C)[nH]c(C(=O)CN(C)CC(=O)Nc2ccccc2C(F)(F)F)c1C,,"inconclusive [activator, partial curve]"
COC(=O)c1ccc(Oc2c(Cl)cccc2[N+](=O)[O-])cc1,,"inconclusive [activator, partial curve]"
COC(=O)c1sccc1NC(=O)c1ccc(C)o1,,inactive
CCN(c1cccc(C)c1)S(=O)(=O)c1ccc2[nH]cc(C(=O)NCCCOC)c(=O)c2c1,,inactive
COc1ccc(N2CCN(C(=O)c3cn(CC(C)C)c(=O)c4c3c3ccccc3n4C)CC2)cc1,,inactive
CNC(=O)c1ccccc1NC(=O)c1cccc(S(=O)(=O)N2CCC(C)CC2)c1,,inactive
CC(C)CC(=O)NC(=S)Nc1ccc(N2CCOCC2)c(Cl)c1,,"inconclusive [activator, full curve]"
C=CCOc1cccc(C(=O)/C=C2/C(=O)Nc3ccccc32)c1,,"inconclusive [activator, partial curve, poor fit]"
S=C(N/N=C/c1cccs1)NC1CC2CCC1C2 (stereo not given),,"inconclusive [activator, single point]"
CC(=O)C1C(c2ccc(Cl)cc2)NC(=O)NC1(O)C(F)(F)F (stereo not given),inconclusive: -84.9% [activator],
COc1cc(NC(=O)CSc2nc3ncccc3o2)cc(OC)c1,,inactive
Cc1ccc(Cn2ccnc2SCC(=O)NCc2ccccc2Cl)cc1,,inactive
COc1ccc(NC(=S)N2CCN(C(c3ccccc3)c3ccccc3)CC2)cc1OC,,"inconclusive [activator, partial curve, poor fit]"
O=C(NC(=S)N1CCCCC1CO)c1cc(Br)ccc1Cl (stereo not given),,"inconclusive [activator, single point]"
COc1c(Cl)ccc(Cl)c1C(=O)NC(=O)Nc1nc(C)cc(C)n1,,inactive
COc1ccc(-c2nc(CSCC(=O)N3CCN(c4cc(Cl)ccc4C)CC3)c(C)o2)cc1,,inactive
CCN(CC)CCCN(Cc1cc2ccc(C)c(C)c2[nH]c1=O)C(=O)NC1CCCCC1,,"inconclusive [activator, single point]"

Compound,growth rescue,Potency
Cc1ccc(NCc2n[nH]c(=S)n2Cc2ccccc2)cc1Cl,,"inconclusive [activator, single point]"
Cc1ccc(NC2=Nc3ccccc3N3C2=Nc2c(c(C)nn2-c2ccccc2)C3c2ccc(O)c(O)c2)cc1 (stereo not given),,"inconclusive [activator, full curve]"
CC(=O)c1c(C)[nH]c(C(=O)/C(C#N)=C/c2cccc(C)c2)c1C,,inactive
O=C1CC(N2CCN(c3cccc(C(F)(F)F)c3)CC2)C(=O)N1c1ccccc1F (stereo not given),,"inconclusive [activator, single point]"
COc1cc(C(=O)NC(=S)NNC(=O)c2ccc3c(c2)OCO3)cc(OC)c1OC,,"inconclusive [activator, partial curve, poor fit]"
COC(=O)CN1C(=O)c2cccc3cccc1c23,,inactive
O=c1c(F)cn(C2CCCO2)c(=O)n1Cc1ccc(Cl)cc1 (stereo not given),,"inconclusive [activator, partial curve, poor fit]"
CCn1cc2nc(SCC(=O)Nc3cc(OC)cc(OC)c3)n(Cc3ccc(Cl)cc3)c(=O)c2n1,,inactive
C[C@]12CCC(O)CC1=CCC1C2CC[C@]2(C)/C(=N\NC(N)=S)CCC12 (stereo not given in full),,active: 2.51 µM
O=C(COc1ccccc1)Nc1nnc(-c2ccc(Cl)cc2)o1,,"inconclusive [activator, single point]"
Cc1ccccc1COC[C@H](CC(C)C)N1CCN(C(=O)c2cccc(C(F)(F)F)c2)CCC1=O,,inactive
N#CC1=C(O)C(c2ccccc2)n2c1nc(=O)c1ccccc12 (stereo not given),,inactive
Cc1ccc(/C=N/N2CCN(C3c4ccccc4-c4ccccc43)CC2)o1,,"inconclusive [activator, partial curve, poor fit]"
COc1ccc(CN(C(=S)Nc2ccccc2)C2CC(=O)N(c3ccc(Cl)cc3)C2=O)cc1 (stereo not given),,"inconclusive [activator, single point]"
O=C(COC(=O)c1cccc2ccccc12)NCC1CCCO1 (stereo not given),,inactive
Clc1cccc(CNc2ccn3nc(-c4ccccc4Cl)cc3n2)c1,,"inconclusive [activator, single point]"
COc1ccc(CNC(=S)Nc2ccccc2)cc1Cl,,"inconclusive [activator, single point]"
Cc1ccc(NC(=O)c2nc[nH]c2C(=O)N[C@H](C)c2ccccc2)cc1,,"inconclusive [activator, single point]"
OCCNc1ncnc2c1ncn2[C@H]1CN(Cc2ccncc2)C[C@@H](CO)O1,,"inconclusive [activator, partial curve, poor fit]"
CCCCc1ccc(NC(=S)NN2CCOCC2)cc1,,"inconclusive [activator, partial curve, poor fit]"
CCCCNC(=S)N/N=C/c1sccc1C,,"inconclusive [activator, partial curve]"
COc1ccc(CSCC(=O)Nc2ccc(S(=O)(=O)N3CCCCCC3)cc2)cc1,,inactive

# — PubChem BioAssay AID1347071 (National Center for Advancing Translational Sciences (NCATS), 2019)
